# Source: PMC10668032
# Some of the results follow. At the low end of the ranking the order means little.
# Target: SIX1-Q177R homeodomain (UniProt Q15475)
# Test: universal protein binding microarray
# Details: Universal all-10-mer PBM (8x60K, AMADID 030236), 300 nM GST-tagged protein, Alexa Fluor 488 anti-GST; buffer, salt, pH and temperature not stated; high values mean tight binding; most listed sequences are background and not binding sites; double strand, one strand shown
row,Sequence,binding signal [E-score]
1,ACACACGA,0.251
2,CCCGCTCC,0.0597
3,CCAGGAGG,-0.113
4,AAATAGAT,-0.146
5,TGGTAACA,0.0425
6,AGATCGAA,-0.31
7,AAGGCAAA,-0.0842
8,CTCCCCAC,-0.00611
9,CATATTCC,-0.192
10,AACCACAT,-0.0467
11,CAACACCA,0.474
12,CCACCCGC,0.146
13,ACTAGGAG,0.219
14,CTAGCCGC,-0.162
15,CAAAGAAG,-0.068
16,GCGGGTAA,0.164
17,GTAACGCA,-0.0317
18,ATACTATG,-0.0326
19,GAGTAGAA,0.0107
20,GGTCGCCA,-0.217
21,CCGCGTCA,0.156
22,AACGTTGG,-0.118
23,GTACTCCA,0.178
24,GCATACAA,-0.0449
25,ATCAAGTG,0.151

row,Sequence,binding signal [E-score]
1,ACCATTTC,-0.049
2,AATGAGGG,0.0404
3,ACACCCAG,0.46
4,CTGTTTTC,-0.193
5,ATTGCTAA,-0.211
6,CCAAGGAG,-0.0441
7,GCTAAGAC,-0.0312
8,ATCCTATA,-0.137
9,AGAGCTCC,-0.206
10,ACGGGTAT,0.277
11,CTGAGAGA,0.108
12,GGACAACC,-0.146
13,ACCTGGCT,-0.0981
14,AGAAAGAG,0.108
15,CACCGGGC,0.262
16,CGCGGAAG,-0.112
17,CACTACGA,0.191
18,GGAGAGAC,-0.106
19,ACACTAGG,0.381
20,ATGGAGAC,0.174
21,GAACCTCA,-0.124
22,AACCATGA,0.00619
23,CCTTGCGA,0.0371
24,CAACCTCC,-0.109
25,CTGGTCGA,-0.16

row,Sequence,binding signal [E-score]
1,ACATACGT,-0.172
2,AGTACGTC,-0.0402
3,ATGGAGTG,0.274
4,TAGAACAA,-0.128
5,GCGTGTGA,0.347
6,ACTTGTAC,0.129
7,CAACAATA,-0.111
8,CATCTAGG,-0.1
9,AAGGTCCA,-0.247
10,AAGCATTG,-0.076
11,CGATCCCC,0.303
12,GGGTGAAC,0.0894
13,TCAAACGA,-0.214
14,CCGGACGA,0.185
15,AACCCCAC,0.222
16,CAATCAGC,-0.128
17,GGTTCCAA,-0.0165
18,ACCATGAA,0.162
19,CAGACGAG,-0.16
20,AGTACTCA,-0.142
21,CCAAACGA,0.00661
22,AATCTTTC,-0.17
23,ATGCGCGG,-0.0645
24,CCTCACAA,0.0782
25,GCGTCGCA,0.0692

row,Sequence,binding signal [E-score]
1,AACGGCGG,0.0531
2,GAGCTGAA,-0.246
3,CTTGTCCC,-0.272
4,CGTCGCTC,-0.11
5,ATGACCGA,-0.125
6,AAGTATGG,0.0111
7,GAACTTCC,-0.352
8,CCTACCTA,0.0692
9,TACAGAGA,-0.277
10,CAGGGTCA,0.0436
11,TCCACTAA,0.127
12,ACCTCGCA,-0.0564
13,CAATGAGG,-0.144
14,CGGGTATC,0.374
15,CGCTGTAG,-0.0217
16,AATGGCAA,-0.306
17,CGTCCAAA,-0.179
18,CTAAAGCC,-0.22
19,GTGGCTCA,-0.194
20,CTTGAATA,-0.108
21,CAGTGAAA,-0.152
22,ATCTCTCG,0.0732
23,AGGGAATA,-0.319
24,CACTCATC,-0.0811
25,CGTTTTAG,-0.199

row,Sequence,binding signal [E-score]
1,ATGTGGGG,0.0394
2,CTCAGTGA,-0.104
3,GATGATAA,-0.0972
4,GTTAAGAA,0.047
5,ACGTACCG,-0.0746
6,AGTCGGCG,0.0331
7,CTGTCTCC,-0.2
8,CAACCAAA,-0.0632
9,AACCGTCT,-0.135
10,CGAACTTC,-0.321
11,ACCTTTTA,-0.0514
12,AAAGGCCC,-0.299
13,AGAACGTC,-0.185
14,GTGTATTA,0.401
15,AGTCCTGA,-0.0259
16,GCTGCTAC,-0.0755
17,CGGTCAGC,-0.0314
18,AGTGGGAG,-0.00769
19,GCTGGAAA,0.0196
20,ATGGCTGG,-0.103
21,AGAGTGAT,-0.0616
22,CATTATAC,0.0866
23,AGACACCC,0.469
24,CCCAACCG,-0.145
25,CCCACTGC,-0.0586

row,Sequence,binding signal [E-score]
1,CCCCGCCC,0.223
2,ATATTCAC,-0.0871
3,CAGAGCCC,-0.221
4,CCGTGCGC,0.0832
5,GCGCATCA,-0.15
6,AGCTTTGG,-0.177
7,CGCGTCTA,-0.0609
8,GGAGTGAA,0.124
9,TCCTGGAA,-0.108
10,TAGCGCGA,0.16
11,CCAGTTTC,-0.161
12,CATCTTAG,-0.0978
13,ATCCGATC,0.213
14,CCCCACAC,0.266
15,ATTGGTTA,-0.18
16,CCCACCTC,0.126
17,AGATACAT,-0.00932
18,CCAACTAC,0.151
19,GGGTCAGA,0.196
20,AATCGTAA,-0.16
21,TGAGATAA,-0.124
22,CACCGACA,0.374
23,CGACTTAA,-0.137
24,ACCTCTCA,0.0543
25,AGCATAAG,-0.219

row,Sequence,binding signal [E-score]
1,AGTGAACA,0.102
2,AAAATGCT,-0.158
3,CGCCATGC,-0.19
4,CCGTCTGA,0.0396
5,GGCGTTCA,0.0504
6,AGCACGGG,0.155
7,CCGAATCC,0.00344
8,ATACGTGC,0.112
9,ACCCGCGA,0.239
10,CCGGCTTC,-0.0559
11,CACCCGCC,0.339
12,ACATAGCG,-0.167
13,ATCGAACG,-0.042
14,GATGTTAC,-0.0259
15,AACACAGC,0.0116
16,AGAGGTCA,-0.2
17,CACCTATA,0.301
18,CGATCCTC,0.132
19,CGTGTATC,0.39
20,GACGAGGC,-0.011
21,CACCAACC,0.217
22,TAACGACA,0.122
